# Assay results: a collection of fitness landscapes (doi:10.1016/j.celrep.2020.107928)
# Whole data set: some 81,000 sequences, median “one-hybrid fitness for binding parS DNA” near -0.17, cut for the highest 2% near 0.51. Some of the results follow.
# B1: Caulobacter ParB omega fusion; a variant is named by its letters at X, in order, B8GW30 (parent)
# chain: MESVVVGEPGMSEGRRGLGRGLSALLGEVDAAPAQAPGEQLGGSREAPIEILQRNPDQPRRTFREEDLEDLSNSIREKGVLQPILVRPSPDTAGEYQIVAGERAWRAAQRAGLKTVPIMVRELDDLAVLEIGIIENVQRADLNVLEEALSYKVLMEKFERTQENIAQTIGKSXSHVANXMRLLXLPDEVQSYLVSGELTAXHARAIAAAADPVALAKQIIEGGLSVRETEALARKAPNLSAGKSKGGRPPRVKDTDTQALESDLSSVLGLDVSIDHRGSTGTLTITYATLEQLDDLCNRLTRGI
# Variants of: B1
# Experiment: one-hybrid fitness for binding parS DNA (scaled: cognate 1, non-cognate 0); higher = stronger binding
# Settings: with parS DNA site
# Procedure, shortened: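 Selection: bacterial one-hybrid in E. coli USO, HIS3 reporter with the site 19 bp from the promoter, 48 hours at 37°C on M9-minus-histidine plus 0.1 mM IPTG and 5 mM 3-AT. Libraries were Caulobacter ParB with four randomised specificity codons, sequenced on Illumina before and after selection. Fitness is the rescaled log change in variant-to-wild-type read ratio, anchored to the cognate and non-cognate sites.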
row,Variant,one-hybrid fitness for binding parS DNA
1,ELYL,≤ 0.2
2,IQHT,≤ 0.2
3,MQGR,≤ 0.2
4,ANAY,≤ 0.2
5,SKRR,≤ 0.2
6,HGLR,≤ 0.2
7,QSLC,≤ 0.2
8,MGKR,≤ 0.2
9,YNQW,≤ 0.2
10,WVPR,≤ 0.2
11,AKNG,≤ 0.2
12,NPIM,≤ 0.2
13,VPDW,≤ 0.2
14,KSPL,≤ 0.2
15,NVLL,≤ 0.2
16,PSLY,≤ 0.2
17,RAVN,0.388
18,GNDR,≤ 0.2
19,GCSP,≤ 0.2
20,FSKL,≤ 0.2
21,GKHG,≤ 0.2
22,LIMG,≤ 0.2
23,LTPR,≤ 0.2
24,VMVV,≤ 0.2

row,Variant,one-hybrid fitness for binding parS DNA
1,NTPR,≤ 0.2
2,EMPC,≤ 0.2
3,GTWS,≤ 0.2
4,CPVI,≤ 0.2
5,PFDV,≤ 0.2
6,RSRN,0.416
7,SAKY,≤ 0.2
8,PNAC,≤ 0.2
9,RVMY,0.455
10,HDPT,≤ 0.2
11,VDRL,≤ 0.2
12,VGVK,≤ 0.2
13,LHIV,≤ 0.2
14,LQLA,≤ 0.2
15,TIQF,≤ 0.2
16,TDTC,≤ 0.2
17,SAAV,≤ 0.2
18,RNCI,≤ 0.2
19,LEQE,≤ 0.2
20,CVAT,≤ 0.2
21,RPGT,≤ 0.2
22,PPGC,≤ 0.2
23,KRPK,≤ 0.2
24,SRLY,≤ 0.2

row,Variant,one-hybrid fitness for binding parS DNA
1,MVES,≤ 0.2
2,HLYS,≤ 0.2
3,GQFR,≤ 0.2
4,HRTP,≤ 0.2
5,HDWC,≤ 0.2
6,LFKS,≤ 0.2
7,TADN,≤ 0.2
8,TFAW,≤ 0.2
9,VHCK,≤ 0.2
10,ATTP,≤ 0.2
11,LTSW,≤ 0.2
12,KKHL,≤ 0.2
13,MMFG,≤ 0.2
14,EHDM,≤ 0.2
15,QYQM,≤ 0.2
16,RFHY,0.462
17,CVVF,≤ 0.2
18,ALHE,≤ 0.2
19,FPRV,≤ 0.2
20,TKPT,≤ 0.2
21,SKDP,≤ 0.2
22,EESV,≤ 0.2
23,DYSC,≤ 0.2
24,AFLG,≤ 0.2

row,Variant,one-hybrid fitness for binding parS DNA
1,WWLN,≤ 0.2
2,VPDM,≤ 0.2
3,TQPL,≤ 0.2
4,NTPL,≤ 0.2
5,LHCT,≤ 0.2
6,LNRH,≤ 0.2
7,VARH,≤ 0.2
8,PMNL,≤ 0.2
9,GSWL,≤ 0.2
10,NWEG,≤ 0.2
11,NMPV,≤ 0.2
12,MATL,≤ 0.2
13,IDNM,≤ 0.2
14,CPRG,≤ 0.2
15,SVAC,≤ 0.2
16,YALA,≤ 0.2
17,QTDE,≤ 0.2
18,MRHY,≤ 0.2
19,ICGT,≤ 0.2
20,CYTG,≤ 0.2
21,SLNM,≤ 0.2
22,ACNC,≤ 0.2
23,LNSW,≤ 0.2
24,LQVC,≤ 0.2

row,Variant,one-hybrid fitness for binding parS DNA
1,EPQM,≤ 0.2
2,TSWQ,≤ 0.2
3,FKSS,≤ 0.2
4,GVHT,≤ 0.2
5,FCAS,≤ 0.2
6,QNQT,≤ 0.2
7,QQCG,≤ 0.2
8,PESC,≤ 0.2
9,HYFS,≤ 0.2
10,RFKN,0.441
11,HTST,≤ 0.2
12,VDWK,≤ 0.2
13,TIIY,≤ 0.2
14,LVAM,≤ 0.2
15,CVEC,≤ 0.2
16,HPGE,≤ 0.2
17,VPYW,≤ 0.2
18,KRPI,≤ 0.2
19,RATV,≤ 0.2
20,RLWT,0.889
21,VWVR,≤ 0.2
22,FQGT,≤ 0.2
23,VPRM,≤ 0.2
24,LIHN,≤ 0.2

row,Variant,one-hybrid fitness for binding parS DNA
1,KSSC,≤ 0.2
2,RMLQ,0.208
3,GKDF,≤ 0.2
4,RLPG,0.755
5,TAVA,≤ 0.2
6,NHLS,≤ 0.2
7,ILTV,≤ 0.2
8,FPGG,≤ 0.2
9,PHYA,≤ 0.2
10,YNCG,≤ 0.2
11,EHAP,0.214
12,VMTR,≤ 0.2
13,FRHW,≤ 0.2
14,VDSG,≤ 0.2
15,SVHT,≤ 0.2
16,RIDT,0.725
17,SPHD,≤ 0.2
18,VHCS,≤ 0.2
19,NLFQ,≤ 0.2
20,DWHR,≤ 0.2
21,PQEV,≤ 0.2
22,NTLA,≤ 0.2
23,DNYA,≤ 0.2
24,RVHA,0.552

row,Variant,one-hybrid fitness for binding parS DNA
1,TNRR,≤ 0.2
2,RKDE,≤ 0.2
3,LGDG,≤ 0.2
4,TLLA,≤ 0.2
5,TKTE,≤ 0.2
6,PIWC,≤ 0.2
7,HPWV,≤ 0.2
8,TSAK,≤ 0.2
9,IFTL,≤ 0.2
10,ITWS,≤ 0.2
11,QCNQ,≤ 0.2
12,LGQR,≤ 0.2
13,GTRM,≤ 0.2
14,SQVV,≤ 0.2
15,RFFY,0.269
16,DTPT,≤ 0.2
17,NYRA,≤ 0.2
18,PGQG,≤ 0.2
19,DTKT,≤ 0.2
20,MDNL,≤ 0.2
21,KISC,≤ 0.2
22,TNHR,≤ 0.2
23,HMLV,≤ 0.2
24,ETSL,≤ 0.2

row,Variant,one-hybrid fitness for binding parS DNA
1,TLVF,≤ 0.2
2,RMVF,0.259
3,MLRL,≤ 0.2
4,LCSP,≤ 0.2
5,AEKS,≤ 0.2
6,WTNS,≤ 0.2
7,RNCV,≤ 0.2
8,CCKY,≤ 0.2
9,CNHT,≤ 0.2
10,QPYP,≤ 0.2
11,WPPM,≤ 0.2
12,SGWW,≤ 0.2
13,SMRE,≤ 0.2
14,LASD,≤ 0.2
15,ILST,≤ 0.2
16,FYRG,≤ 0.2
17,HDFT,≤ 0.2
18,PFCS,≤ 0.2
19,QQHK,≤ 0.2
20,WTKI,≤ 0.2
21,TRLR,≤ 0.2
22,SFMF,≤ 0.2
23,VKTF,≤ 0.2
24,KVAN,≤ 0.2

row,Variant,one-hybrid fitness for binding parS DNA
1,AIKA,≤ 0.2
2,KAME,≤ 0.2
3,HAVD,≤ 0.2
4,YEKG,≤ 0.2
5,YCHM,≤ 0.2
6,RPIN,≤ 0.2
7,HGVM,≤ 0.2
8,MGGF,≤ 0.2
9,YKLS,≤ 0.2
10,KCWS,≤ 0.2
11,FAPG,≤ 0.2
12,ALYT,≤ 0.2
13,SIAS,≤ 0.2
14,RGHT,0.519
15,RDGG,≤ 0.2
16,VYNC,≤ 0.2
17,SMPD,≤ 0.2
18,LSGH,≤ 0.2
19,HTKG,≤ 0.2
20,RQET,0.719
21,NEPW,≤ 0.2
22,ILTS,≤ 0.2
23,QVQY,≤ 0.2
24,LSNS,≤ 0.2

row,Variant,one-hybrid fitness for binding parS DNA
1,PQYG,≤ 0.2
2,VPPV,≤ 0.2
3,RMLH,0.275
4,VRPF,≤ 0.2
5,QVHI,≤ 0.2
6,PSQM,≤ 0.2
7,REES,≤ 0.2
8,PQIV,≤ 0.2
9,PSSW,≤ 0.2
10,TEPG,≤ 0.2
11,SVTT,≤ 0.2
12,DLSC,≤ 0.2
13,QVGS,≤ 0.2
14,NPLR,≤ 0.2
15,QASM,≤ 0.2
16,LYSM,≤ 0.2
17,PNAI,≤ 0.2
18,FPMG,≤ 0.2
19,YYYG,≤ 0.2
20,SCLF,≤ 0.2
21,AIDF,≤ 0.2
22,QIMY,≤ 0.2
23,SSCW,≤ 0.2
24,GKYF,≤ 0.2

row,Variant,one-hybrid fitness for binding parS DNA
1,ETAD,≤ 0.2
2,HAHQ,≤ 0.2
3,YMDC,≤ 0.2
4,AGSP,≤ 0.2
5,IWPC,≤ 0.2
6,QCYM,≤ 0.2
7,ALWM,≤ 0.2
8,EQNC,≤ 0.2
9,CSKL,≤ 0.2
10,QLMT,≤ 0.2
11,AAAY,≤ 0.2
12,KIFL,≤ 0.2
13,QQQT,≤ 0.2
14,TPLS,≤ 0.2
15,GVNY,≤ 0.2
16,FYAG,≤ 0.2
17,VIPL,≤ 0.2
18,TKTQ,≤ 0.2
19,KECR,≤ 0.2
20,ETST,≤ 0.2
21,SCDG,≤ 0.2
22,MNSC,≤ 0.2
23,GPCR,≤ 0.2
24,ARPH,≤ 0.2

row,Variant,one-hybrid fitness for binding parS DNA
1,DVNH,≤ 0.2
2,TKIV,≤ 0.2
3,LQIG,≤ 0.2
4,TIDL,≤ 0.2
5,QREN,≤ 0.2
6,THLQ,≤ 0.2
7,IHFR,≤ 0.2
8,GPSW,≤ 0.2
9,SKRV,≤ 0.2
10,CCIK,≤ 0.2
11,VTPC,≤ 0.2
12,LVRM,≤ 0.2
13,KNYG,≤ 0.2
14,SVPY,≤ 0.2
15,VEDW,≤ 0.2
16,IHWS,≤ 0.2
17,ACTL,≤ 0.2
18,NLPG,≤ 0.2
19,LPVT,≤ 0.2
20,QTLQ,≤ 0.2
21,VCDS,≤ 0.2
22,SHET,≤ 0.2
23,LMPE,≤ 0.2
24,HYVG,≤ 0.2

row,Variant,one-hybrid fitness for binding parS DNA
1,LFAR,≤ 0.2
2,NLDC,≤ 0.2
3,SRPS,≤ 0.2
4,EMAS,≤ 0.2
5,HRFG,≤ 0.2
6,WMQV,≤ 0.2
7,HTNK,≤ 0.2
8,FYLF,≤ 0.2
9,NLHS,≤ 0.2
10,AFAL,≤ 0.2
11,PTQN,≤ 0.2
12,KLSN,≤ 0.2
13,PETS,≤ 0.2
14,SCTA,≤ 0.2
15,KMAL,≤ 0.2
16,RLWL,≤ 0.2
17,SPSQ,≤ 0.2
18,CPYS,≤ 0.2
